Measurements from PubChem BioAssay AID894 (National Center for Advancing Translational Sciences (NCATS), 2007).
Among all 150,000 compounds or so, about 6,500 (4.3%) were called active. Inconclusive means that the source gave no clear call. Such entries were picked first, then a sample of the others. Calls follow the shape of the dose curve; as a rule, active = well fitted inhibition curve with a large enough effect (not every such curve was filed as active); inconclusive = small, poorly fitted or top-dose-only effect, or another doubt; inactive = no such curve, though single readings can be large or run the other way. No potency is given beside an inconclusive call; the fits are too rough.

Target: 15-hydroxyprostaglandin dehydrogenase [NAD(+)] (Homo sapiens) (UniProt P15428)
Assay: qHTS Assay for Inhibitors of HPGD (15-Hydroxyprostaglandin Dehydrogenase)
Details: purified HPGD, NADH fluorescence kinetic, PGE2 substrate; activity change, negative = inhibition: hits give low values
Procedure, shortened: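 NADH formation kinetics: reaction with 30 uM PGE2 and 1 mM NAD+ (final), 20 nM enzyme, Tris-HCl pH 8 with Tween 20, after 15 min compound preincubation at room temperature. Fluorescence change, last versus first of five reads.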
% is scaled to controls: 0 for no effect and ±100 for the full control effect; potency is read from the fitted curve at half-maximal effect; tags tell the direction and shape of the fitted curve.

Chain of UniProt P15428 (P15428 whole entry, looked up): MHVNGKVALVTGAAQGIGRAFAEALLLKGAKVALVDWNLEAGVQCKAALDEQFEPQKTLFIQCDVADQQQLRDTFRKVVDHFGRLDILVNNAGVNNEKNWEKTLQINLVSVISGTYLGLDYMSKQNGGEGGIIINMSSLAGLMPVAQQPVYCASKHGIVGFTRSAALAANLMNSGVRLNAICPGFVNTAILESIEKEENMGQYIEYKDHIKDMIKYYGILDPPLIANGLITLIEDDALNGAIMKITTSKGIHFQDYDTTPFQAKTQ

Row | SMILES | activity change, negative = inhibition | Potency
1 | COc1ccc(/C=C(\C#N)C(=O)OCC(=O)Nc2c(C)cccc2C)cc1 | inactive: -10.7% | –
2 | Cc1cc(NC(=O)Cn2c(=O)n(Cc3ccccc3)c(=O)c3ccccc32)no1 | – | inconclusive [inhibitor, partial curve]
3 | O=C(O)CCCNc1cc(N2CCC3(CC2)OCCO3)c2noc3c2c1C(=O)c1ccccc1-3 | inactive: -29.5% | –
4 | COc1ccc(NC(=O)N2CC3(CCN(C(=O)c4c(C)noc4C)CC3)C2)cc1 | inactive: -22% | –
5 | N#Cc1nc(COc2ccc(Cl)cc2Cl)oc1N1CCOCC1 | – | inconclusive [inhibitor, partial curve]
6 | Cc1ccccc1-c1nc(-n2ccnc2)c2ccccc2n1 | inactive: -9.98% | –
7 | CN1/C(=C\C(=O)c2ccccc2Cl)c2ccccc2CC1(C)C | – | active: 17.8 µM
8 | COCCNC(=O)C(C)OC(=O)c1cc2occc2n1C (stereo not drawn) | – | active: 14.1 µM
9 | C=CCn1cnc2c(c1=O)c1nc3ccccc3nc1n2/N=C/c1cccc(OC)c1OC | – | inconclusive [inhibitor, partial curve]
10 | CCOc1ccc(C(=O)Nc2cc(S(=O)(=O)Nc3ccccc3Cl)ccc2N2CCOCC2)cc1 | – | inconclusive [inhibitor, single point]
11 | COc1ccc2[nH]c(=O)c(CN(CC3CCCO3)C(=O)Nc3ccccc3OC)cc2c1 (stereo not drawn) | – | inconclusive [inhibitor, partial curve]
12 | Cc1nc(-c2ccc(O)c(O)c2)cs1 | – | active: 22.4 µM
13 | Cc1ccc2[nH]c(=O)c(CN(Cc3cccs3)Cc3nnnn3Cc3ccccc3)cc2c1 | – | inconclusive [inhibitor, single point]
14 | CCC(=O)Nc1nc(C)c(C(=O)N2CCCCC2)s1 | – | active: 8.91 µM
15 | CCNC(=O)c1ccccc1-c1nc(-c2ccccc2Cl)no1 | – | inconclusive [inhibitor, partial curve, poor fit]
16 | COc1cc2c(cc1NC(=O)CSc1ccc(C)cc1)oc1ccccc12 | – | inconclusive [inhibitor, partial curve]
17 | CC(C)N1C(=S)SC2CS(=O)(=O)C=C21 (stereo not drawn) | inactive: -6.12% | –
18 | O=C(COC(=O)C1CC(=O)N(Cc2ccco2)C1)c1ccc(OC(=O)c2ccccc2)cc1 (stereo not drawn) | – | active: 28.2 µM
19 | COc1ccc(-c2nc(C#N)c(NCCc3ccccc3)o2)cc1 | – | inconclusive [inhibitor, partial curve]
20 | Cc1ccc(NC(=O)COC(=O)c2ccc3c(c2)NC(=O)C2CCCN32)cc1C (stereo not drawn) | – | inconclusive [inhibitor, partial curve]
21 | C/C(=N\O)c1ccc2c3ccccc3n(C)c2c1 | – | inconclusive [inhibitor, partial curve]
22 | COC(=O)Cc1c(C)nc2nc(-c3ccc(OC)cc3)[nH]n2c1=O | – | inconclusive [inhibitor, partial curve]
23 | Clc1ncnc2scc(C3COc4ccccc4O3)c12 (stereo not drawn) | – | active: 28.2 µM
24 | CCOc1cc(C(=O)NCc2nnc(SCC(=O)OC)n2C)cc(OCC)c1OCC | inactive: -6.25% | –
25 | CCCC(=O)Nc1ccc(Cl)c(NC(=O)c2cccnc2Cl)c1 | inactive: -15.8% | –

Row | SMILES | activity change, negative = inhibition | Potency
26 | Cc1ccc(Nc2nnns2)cc1C | – | active: 22.4 µM
27 | CC(Sc1ccc2ccccc2n1)C(=O)O (stereo not drawn) | – | inconclusive [inhibitor, partial curve]
28 | CCCc1cc(N2CCN(c3ccccn3)CC2)n2nc(C)c(-c3ccccc3)c2n1 | – | inconclusive [inhibitor, partial curve]
29 | O=[N+]([O-])c1ccc(O)c(N=Cc2sc3ccccc3c2O)c1 | – | active: 14.1 µM
30 | CCN(CC)c1ccc(-c2nn3c(-c4n[nH]c5c4CCC5)nnc3s2)cc1 | – | inconclusive [inhibitor, partial curve]
31 | Nc1c(C(=O)N2CCCCC2)sc(=S)n1-c1ccccc1 | – | active: 3.16 µM
32 | Cc1cccc2cc(C#N)c(SCC(=O)NCC3CCCO3)nc12 (stereo not drawn) | – | inconclusive [inhibitor, full curve]
33 | CCCCCC(=O)O[C@]1(C(C)=O)CC[C@H]2[C@@H]3CCC4=CC(=O)CC[C@]4(C)[C@H]3CC[C@@]21C | inactive: -10.7% | –
34 | Oc1cc2c(cc1O)CN(C(=S)NCCc1ccc(Cl)cc1)CCC2 | – | active: 14.1 µM
35 | O=C(CN(c1cccc(C(F)(F)F)c1)S(=O)(=O)c1ccc(Cl)c([N+](=O)[O-])c1)NCc1ccccc1 | inactive: -8.44% | –
36 | CCCCC(=O)Nc1ccc(NC(=O)c2ccccc2[N+](=O)[O-])cc1OC | inactive: -7.39% | –
37 | O=C(/C=C/c1ccc2c(c1)OCO2)c1cccs1 | – | inconclusive [inhibitor, full curve]
38 | CCOCC(=O)Nc1nc2c(s1)C(=O)CC(C)(C)C2 | – | inconclusive [inhibitor, partial curve]
39 | COc1ccc(-c2nc3nc(C)cc(C)n3n2)cc1 | – | inconclusive [inhibitor, partial curve]
40 | CCC(=O)N(Cc1cc2c(C)ccc(C)c2[nH]c1=O)C1CCCCC1 | inactive: -10.2% | –
41 | O=C(Nc1c(F)cc(F)cc1Br)c1cc(-c2ccc(O)cc2)on1 | – | inconclusive [inhibitor, single point]
42 | c1ccc(CSc2ncnc3c2cnn3Cc2ccccc2)cc1 | – | inconclusive [inhibitor, partial curve]
43 | Cc1[nH]c2ccccc2c1-c1nc2ccccc2[nH]1 | – | inconclusive [inhibitor, full curve]
44 | COc1ccc(C(=O)N2CCC3(CC2)CCN(c2ccccc2)CC3)cc1 | inactive: -11.6% | –
45 | CCSc1ccccc1C(=O)NCc1ccc(OC)cc1 | – | active: 2.51 µM
46 | COc1ccc(C2=Nn3c(nnc3-c3ccco3)SC2)cc1OC | – | inconclusive [inhibitor, partial curve]
47 | COc1ccccc1NC(=O)c1oc2ccc(C)cc2c1C | – | inconclusive [inhibitor, single point]
48 | Cc1ccc2oc(-c3ccco3)nc2c1 | – | inconclusive [inhibitor, partial curve]
49 | NC[C@@H](O)c1ccc(O)c(O)c1 | – | inconclusive [inhibitor, single point]
50 | CCOc1ccccc1Nc1nc2ccccc2n2cnnc12 | – | inconclusive [inhibitor, partial curve]

Row | SMILES | activity change, negative = inhibition | Potency
51 | COc1cc(OC)cc(C(=O)Nc2ccc(-c3nc4ccccc4o3)c(O)c2)c1 | – | inconclusive [inhibitor, partial curve]
52 | COc1ccc(OC)c2c(N)c(C#N)c(C(F)(F)C(F)(F)F)nc12 | – | inconclusive [inhibitor, single point]
53 | CCc1cc2cc(C)c(C)cc2nc1SCC(=O)NNC(=O)c1ccco1 | inactive: -14.3% | –
54 | CCOC(=O)c1c(NC(=O)c2cccs2)sc2c1CC(C)(C)OC2 | – | inconclusive [inhibitor, single point]
55 | O=C(NCc1ccccn1)C1CCN(Cc2cnn(-c3ccccc3)c2-n2cccc2)CC1 | inactive: -13.6% | –
56 | COC(CNC(=O)C1CC(=O)N(CCc2ccccc2)C1)OC (stereo not drawn) | inactive: -15.6% | –
57 | CCOC(=O)C1=C(N)OC2=C(C(=O)CC(C)(C)C2)C1C1CCCCC1 (stereo not drawn) | inactive: -3.83% | –
58 | COc1ccc(CN(C2CCCC2)S(=O)(=O)c2ccc(-n3cnnn3)cc2)cc1OC | inactive: -12.4% | –
59 | CCN(C(=O)COC(=O)c1c(NC(C)=O)sc(C)c1C)C1CCS(=O)(=O)C1 (stereo not drawn) | inactive: -23.1% | –
60 | CCOC(=O)Cn1c(=NC(=O)c2sc3ccccc3c2Cl)sc2cc(S(N)(=O)=O)ccc21 | – | inconclusive [inhibitor, partial curve]
61 | CCCNC(=O)C1CNc2ccccc2O1 (stereo not drawn) | – | active: 25.1 µM
62 | CCn1c(SCC(=O)c2ccc(Cl)cc2)nnc1-c1ccoc1C | – | inconclusive [inhibitor, partial curve]
63 | CCCC(=O)Nc1nnc(-c2cccc(OCC)c2)s1 | – | inconclusive [inhibitor, partial curve]
64 | COc1ccccc1NC(=O)N(Cc1ccco1)Cc1cc2cc(C)cc(C)c2[nH]c1=O | – | inconclusive [inhibitor, partial curve, poor fit]
65 | COC(=O)C1=CNC=C(C(=O)OC)C1c1cccc(OC)c1 | – | inconclusive [inhibitor, partial curve]
66 | CCOc1cccc(/C(O)=C2/C(=O)C(=O)N(Cc3cccnc3)C2c2ccco2)c1 (stereo not drawn) | inactive: -5.7% | –
67 | CC1CCCC/C1=N\Nc1ccc(S(N)(=O)=O)cc1[N+](=O)[O-] (stereo not drawn) | inactive: -10.6% | –
68 | Cn1c(SCCOc2ccccc2Cl)nnc1-c1cccs1 | – | inconclusive [inhibitor, partial curve]
69 | COc1ccc(NC(=O)c2c(NC(=O)CNCc3ccco3)sc3c2CCC3)cc1 | inactive: -17% | –
70 | COc1ccc(/C=N/Nc2nc(NCc3ccco3)nc(Nc3ccc(OC)cc3)n2)cc1 | inactive: -27.4% | –
71 | CCOC(=O)C1CCN(C(=O)Nc2ccc3nc(-c4ccco4)c(-c4ccco4)nc3c2)CC1 | – | inconclusive [inhibitor, partial curve]
72 | Cc1cc(OCc2ccc(C(=O)n3cccn3)o2)ccc1Cl | – | active: 31.6 µM
73 | CCOC(=O)c1[nH]c(C)c(C(=O)OCC)c1C | – | inconclusive [inhibitor, partial curve]
